In the supplement of paper PMC3334620:
Whole data set: some 33,000 sequences, median “E-score (-0.5 to 0.5)” near -0.012, cut for the highest 2% near 0.27. Some of the results follow.

Each sequence was assayed against T1, Vhr1 (UniProt P40522) (assay: PBM E-score (8-mer binding enrichment) (E-score (-0.5 to 0.5)); higher = stronger / more preferred TF binding; most listed sequences are background and not binding sites). Conditions: protein concentration: 200 nM; construct: GST-full length.
T1 sequence: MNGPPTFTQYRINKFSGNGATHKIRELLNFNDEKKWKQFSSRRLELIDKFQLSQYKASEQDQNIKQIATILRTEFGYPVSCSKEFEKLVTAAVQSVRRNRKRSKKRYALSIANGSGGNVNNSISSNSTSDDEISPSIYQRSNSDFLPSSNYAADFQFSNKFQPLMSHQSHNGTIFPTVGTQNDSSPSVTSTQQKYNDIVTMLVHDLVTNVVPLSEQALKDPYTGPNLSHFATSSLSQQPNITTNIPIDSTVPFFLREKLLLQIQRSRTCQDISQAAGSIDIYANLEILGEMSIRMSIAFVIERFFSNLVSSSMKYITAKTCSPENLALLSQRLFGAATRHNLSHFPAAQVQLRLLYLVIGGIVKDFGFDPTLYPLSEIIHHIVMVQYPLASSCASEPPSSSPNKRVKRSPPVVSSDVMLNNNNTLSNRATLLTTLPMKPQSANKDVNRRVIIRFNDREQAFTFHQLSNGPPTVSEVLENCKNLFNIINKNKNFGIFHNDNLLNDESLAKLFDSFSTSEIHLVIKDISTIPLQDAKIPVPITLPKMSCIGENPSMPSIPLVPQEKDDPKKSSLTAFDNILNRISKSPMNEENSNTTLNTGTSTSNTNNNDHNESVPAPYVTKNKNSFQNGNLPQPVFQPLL
Protocol: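 Universal 'all 10-mer' protein binding microarrays (Agilent AMADID 015681) probed with GST-tagged S. cerevisiae TFs (full-length or DBD) made by in vitro transcription/translation (PURExpress), about 100-200 nM. Bound TF was detected with fluorescent anti-GST. Each ungapped 8-mer (which stands for itself and its reverse complement) is scored by the PBM enrichment score (E-score), a modified Wilcoxon-Mann-Whitney statistic from -0.5 to +0.5, computed with the Universal PBM Analysis Suite. Scale: above 0.35 generally sequence-specific binding.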

**Q.** CGCCCGCG was tested. Which “PBM E-score” value did it give?
**A.** The value was 0.179.

**Q.** Which “PBM E-score” value does the source give for CGGGTACA here?
**A.** The value was 0.0928.

**Q.** For CGTTGGTC, which “PBM E-score” value is on record?
**A.** The value was 0.0669.

**Q.** CCTTTCGC was tested. Which “PBM E-score” value did it give?
**A.** Its value is -0.0467.

**Q.** How did the “PBM E-score” value turn out when CTAATACA was run?
**A.** Its value is 0.00027.

**Q.** Which “PBM E-score” value does the source give for AAATAACA here?
**A.** Its value is -0.129.

**Q.** GCACACGC was tested. Which “PBM E-score” value did it give?
**A.** Its value is -0.0017.

**Q.** With CCAGAAGC as the sequence, how does the “PBM E-score” value read?
**A.** The value was -0.131.

**Q.** TAATCTAA was tested. Which “PBM E-score” value did it give?
**A.** Its value is -0.203.

**Q.** Which “PBM E-score” value does the source give for GATACGGC here?
**A.** Its value is -0.0645.

**Q.** How did the “PBM E-score” value turn out when AGTGGGAT was run?
**A.** Its value is 0.184.

**Q.** Which “PBM E-score” value does the source give for CCTTCCCA here?
**A.** The value was 0.0792.

**Q.** For AAGACCCA, which “PBM E-score” value is on record?
**A.** The value was 0.0351.

**Q.** GTATCATA was tested. Which “PBM E-score” value did it give?
**A.** Its value is 0.288.

**Q.** ACGTCAGA was tested. Which “PBM E-score” value did it give?
**A.** Its value is -0.0949.

**Q.** How did the “PBM E-score” value turn out when CGGTGAAG was run?
**A.** Its value is -0.127.

**Q.** With AAGCCTTC as the sequence, how does the “PBM E-score” value read?
**A.** Its value is -0.259.

**Q.** CTGGACTC was tested. Which “PBM E-score” value did it give?
**A.** Its value is 0.122.

**Q.** Which “PBM E-score” value does the source give for GCCAAGCA here?
**A.** The value was -0.0244.

**Q.** How did the “PBM E-score” value turn out when ATAGCCCC was run?
**A.** The value was -0.257.

**Q.** CCATCAAA was tested. Which “PBM E-score” value did it give?
**A.** Its value is -0.00654.

**Q.** CAGATCAA was tested. Which “PBM E-score” value did it give?
**A.** The value was 0.0315.

**Q.** CGAACCCC was tested. Which “PBM E-score” value did it give?
**A.** Its value is 0.0309.

**Q.** ATGTTGTC was tested. Which “PBM E-score” value did it give?
**A.** Its value is 0.0937.

**Q.** Which “PBM E-score” value does the source give for AGGTGCGC here?
**A.** Its value is -0.128.

**Q.** For CACGACAC, which “PBM E-score” value is on record?
**A.** Its value is 0.0491.

**Q.** Which “PBM E-score” value does the source give for CCACAAGA here?
**A.** Its value is -0.0184.

**Q.** CCGGCGGC was tested. Which “PBM E-score” value did it give?
**A.** The value was 0.0478.

**Q.** How did the “PBM E-score” value turn out when ATAGCATG was run?
**A.** The value was -0.034.

**Q.** With GGATAAAA as the sequence, how does the “PBM E-score” value read?
**A.** Its value is -0.0106.

**Q.** For AGACACAC, which “PBM E-score” value is on record?
**A.** The value was 0.138.

**Q.** With TAGACCGA as the sequence, how does the “PBM E-score” value read?
**A.** The value was 0.0966.

**Q.** With CCTCATTC as the sequence, how does the “PBM E-score” value read?
**A.** Its value is -0.0181.

**Q.** For GCCTAATA, which “PBM E-score” value is on record?
**A.** The value was -0.105.

**Q.** Which “PBM E-score” value does the source give for ATGCGTCA here?
**A.** The value was -0.0142.

**Q.** With ATCGTATG as the sequence, how does the “PBM E-score” value read?
**A.** Its value is 0.175.

**Q.** Which “PBM E-score” value does the source give for CTATAAAA here?
**A.** Its value is -0.128.

**Q.** Which “PBM E-score” value does the source give for CCAACGAA here?
**A.** Its value is -0.0836.

**Q.** How did the “PBM E-score” value turn out when CTGAACCC was run?
**A.** Its value is 0.141.

**Q.** With AAGTAACC as the sequence, how does the “PBM E-score” value read?
**A.** The value was -0.0634.

**Q.** GCGACAAC was tested. Which “PBM E-score” value did it give?
**A.** Its value is -0.00886.

**Q.** How did the “PBM E-score” value turn out when GTACTCCA was run?
**A.** The value was 0.0026.

**Q.** GAATTCTA was tested. Which “PBM E-score” value did it give?
**A.** The value was -0.0556.

**Q.** Which “PBM E-score” value does the source give for GAAGTTCC here?
**A.** The value was -0.237.

**Q.** CGAGGAGC was tested. Which “PBM E-score” value did it give?
**A.** Its value is -0.0877.

**Q.** Which “PBM E-score” value does the source give for GCAACTAC here?
**A.** The value was 0.0982.

**Q.** How did the “PBM E-score” value turn out when CACGGGCC was run?
**A.** The value was -0.0476.

**Q.** With CACGACTA as the sequence, how does the “PBM E-score” value read?
**A.** Its value is 0.209.

**Q.** For GCTAGCCA, which “PBM E-score” value is on record?
**A.** Its value is -0.17.

**Q.** How did the “PBM E-score” value turn out when GTTACCGA was run?
**A.** Its value is -0.122.

**Q.** CTCTATGC was tested. Which “PBM E-score” value did it give?
**A.** Its value is 0.0426.

**Q.** How did the “PBM E-score” value turn out when TAGAACAA was run?
**A.** Its value is -0.0914.

**Q.** How did the “PBM E-score” value turn out when AACAACTA was run?
**A.** The value was 0.0734.

**Q.** For TCCAGCGA, which “PBM E-score” value is on record?
**A.** Its value is -0.132.

**Q.** For AGTGGACA, which “PBM E-score” value is on record?
**A.** The value was 0.0784.

**Q.** How did the “PBM E-score” value turn out when CGGGATAA was run?
**A.** The value was -0.013.

**Q.** With AGTTCAGG as the sequence, how does the “PBM E-score” value read?
**A.** Its value is -0.148.

**Q.** How did the “PBM E-score” value turn out when CACTAGAA was run?
**A.** Its value is -0.279.

**Q.** With CGAATTTC as the sequence, how does the “PBM E-score” value read?
**A.** The value was -0.109.

**Q.** Which “PBM E-score” value does the source give for CACCTCCG here?
**A.** Its value is 0.109.

**Q.** ATCTAGCG was tested. Which “PBM E-score” value did it give?
**A.** The value was -0.116.

**Q.** Which “PBM E-score” value does the source give for CCTTTGGC here?
**A.** Its value is 0.0451.

**Q.** For CGCGTATA, which “PBM E-score” value is on record?
**A.** The value was -0.0336.

**Q.** CGGATTAA was tested. Which “PBM E-score” value did it give?
**A.** The value was 0.0419.

**Q.** For GTCCGAAC, which “PBM E-score” value is on record?
**A.** The value was -0.133.

**Q.** How did the “PBM E-score” value turn out when AGGGGCAC was run?
**A.** The value was -0.128.

**Q.** For CACAAACG, which “PBM E-score” value is on record?
**A.** Its value is 0.0273.

**Q.** CCGTGGAC was tested. Which “PBM E-score” value did it give?
**A.** Its value is -0.0394.

**Q.** Which “PBM E-score” value does the source give for CAAATGAC here?
**A.** The value was -0.0875.

**Q.** How did the “PBM E-score” value turn out when GCGTAGTA was run?
**A.** Its value is -0.077.

**Q.** AATAGCAC was tested. Which “PBM E-score” value did it give?
**A.** Its value is -0.026.

**Q.** With GCCAGGCC as the sequence, how does the “PBM E-score” value read?
**A.** The value was -0.0963.

**Q.** AACTCAAC was tested. Which “PBM E-score” value did it give?
**A.** The value was 0.109.

**Q.** Which “PBM E-score” value does the source give for GTCATCAA here?
**A.** Its value is 0.196.

**Q.** How did the “PBM E-score” value turn out when ATGGGATG was run?
**A.** The value was 0.0391.

**Q.** How did the “PBM E-score” value turn out when ACCTAAGG was run?
**A.** The value was -0.277.

**Q.** How did the “PBM E-score” value turn out when ATTTTCGC was run?
**A.** Its value is 0.0111.

**Q.** For CTGGCACA, which “PBM E-score” value is on record?
**A.** The value was -0.0822.

**Q.** Which “PBM E-score” value does the source give for CACGTTGA here?
**A.** The value was 0.104.

**Q.** How did the “PBM E-score” value turn out when GGTTCGGA was run?
**A.** The value was -0.112.

**Q.** How did the “PBM E-score” value turn out when AGCAAACG was run?
**A.** Its value is -0.105.

**Q.** With ATGAGCGA as the sequence, how does the “PBM E-score” value read?
**A.** Its value is 0.106.

**Q.** With ATTTAACC as the sequence, how does the “PBM E-score” value read?
**A.** The value was 0.034.

**Q.** How did the “PBM E-score” value turn out when GTTTAGCA was run?
**A.** The value was -0.173.

**Q.** How did the “PBM E-score” value turn out when TCTACAGA was run?
**A.** Its value is 0.00648.

**Q.** AAGCGAGA was tested. Which “PBM E-score” value did it give?
**A.** The value was -0.182.
